According to ChEMBL document CHEMBL4888484, “Replenishing the malaria drug discovery pipeline: Screening and hit evaluation of the MMV Hit Generation Library 1 (HGL1) against asexual blood stage Plasmodium falciparum ,using a nano luciferase reporter read-out” (2022):
Screen size: about 150,000 compounds; about 540 (0.36%) showed an effect of 50% or more. This is one part of the list.

These molecules were tested on Plasmodium falciparum (assay: Primary screen in NF54 nanoGlo assay, in single point, at 2uM, 72h; a lower Z score goes with more inhibition). Conditions: timepoint 72 hour.
Format: functional, Erythrocyte

SMILES | % Inhibition | Z score
Cc1ncc(CN[C@H]2CCCC[C@@H]2F)cn1 | -1% | 0.15
CCc1cc(C(=O)NCc2cccnc2Oc2ccc(F)c(F)c2)[nH]n1 | -10% | 1.25
Cc1ccoc1CN(C)C(=O)c1cn2c(n1)CCC2 | -6% | 0.81
COc1ccc(N2CCCC2=N)c(OC)c1 | 0% | 0.05
Cc1ccc(-c2nnc(NC(=O)c3cnccn3)[nH]2)s1 | -13% | 1.48
C[C@@H](CN1CCOCC1)NS(=O)(=O)C1CN(C(=O)C2CCCC2)C1 | -2% | 0.2
C[C@@H](Cc1cccnc1)NC(=O)c1ccc2nc(C3CC3)oc2c1 | -5% | 0.87
C[C@@H](CS(C)(=O)=O)N(C)C(=O)c1ccc(Cl)c(Cl)c1 | -7% | 1.49
COc1ccccc1OCC(=O)N1CCC2(CC1)CC2(F)F | -11% | 1.84
O=C(Nc1nncs1)c1cc2c(s1)CCCCC2 | -13% | 1.86
CCc1cc(-c2n[nH]c(C)c2-c2cc3c(cc2C)OCCO3)c(O)cc1OC | -2% | 0.29
Cc1cc(OCC(=O)N(C2CCCC2)[C@H]2CCS(=O)(=O)C2)ccc1Cl | 11% | -1.42
O=C(c1ccc2ncsc2c1)N1CC[C@H](c2ccc3c(c2)CCO3)C1 | -11% | 1.26
O[C@H]1C[C@H](NCc2cc(Cl)c3c(c2)OCO3)C12CCOCC2 | -8% | 1.59
Cc1ccsc1CNC(=O)N(C)Cc1c(C)noc1C | 0% | 0.01
O=C(NCC1OCCc2sccc21)C1CCCN1c1ncnc2ccccc12 (centres undefined) | -3% | 0.41
COCCN1CC(=O)N[C@H]2CN(C(=O)c3cc(CC(C)C)on3)C[C@@H]2OCc2cccc(c2)Oc2cncc(c2)C1=O | -4% | 0.7
O=c1[nH]c(-c2cnccn2)nc2cc(F)c(Br)cc12 | -13% | 1.81
Cc1nc(CC(=O)N[C@@H](C)CCc2ccccc2)[nH]c1Cc1ccc(O)cc1 | -2% | 0.22
COCCN1C(=O)c2cccn2C[C@@H]1CNC(=O)CCC1CCCC1 | -2% | 0.3
CC(C)c1ccc(NC(=O)c2cc3n(n2)CCN(Cc2ccc(F)cc2)C3=O)cc1 | -4% | 0.61

SMILES | % Inhibition | Z score
Cn1nccc1-c1cnn([C@@H]2CCCCO2)c1 | -7% | 1.09
Cc1cc(C)cc(C(=O)N2C[C@@H]3CC[C@H]2CN(C(=O)C2CCC2)C3)c1 | -8% | 1.34
C=CCN(Cc1ccc(NC(C)=O)cc1)Cc1ccco1 | -15% | 2.24
FC(F)c1cc(-c2ccco2)nc(N2CCNCC2)n1 | -27% | 3.2
Nc1ncc(Cl)cc1S(=O)(=O)NCCC(F)(F)F | 13% | -1.73
CC(=O)N1CCCC1C(=O)NCC1CC2c3ccccc3C1c1ccccc12 (centres undefined) | 2% | -0.29
CCc1cc(N2CCN(C(=O)c3cnc(CC)nc3)CC2)ncn1 | -18% | 2.36
Cc1cc(C)c(-c2nc([C@H]3CCOC3)no2)c(C)c1 | 0% | 0.09
Cc1ccc(N[C@@H](C)C(=O)NC(N)=O)c(OCC(=O)N(C)C)c1 | 22% | -2.79
C[C@@H](C(=O)O)c1cccc(NC(=O)c2ccc3c(c2)CCOC3)c1 | 4% | -0.71
c1ccc(Cn2ccnc2[C@H]2CCCN(c3ncnc4c3CCC4)C2)cc1 | -2% | 0.38
Cn1cnnc1C[C@H]1CCCN(S(=O)(=O)c2cccc3nsnc23)C1 | -14% | 1.82
C[C@@H](C(=O)Nc1ccc2c(c1)OCCO2)N1CCN(Cc2ccc(OC(F)(F)F)cc2)CC1 | -11% | 1.91
CCNc1ncc(C(=O)N2[C@@H]3CC[C@H]2C[C@@H](c2ccc(F)c(C)c2)C3)cn1 | -13% | 2.17
CC(=O)N[C@@H](CC(C)C)C(=O)N1CCN(Cc2cccc(-c3noc(CC(C)C)n3)c2)CC1 | -7% | 0.69
Cc1cc(C)nc([C@@H](C#N)C(=O)c2ccnc(OCC(F)F)c2)n1 | 32% | -4.26
Cc1c(F)cccc1C(=O)N[C@H]1[C@@H]2CCO[C@@H]2[C@@H]1C1CCCC1 | -8% | 0.83
O=S(=O)(Cc1noc(C[C@@H]2C[C@H]2c2ccccc2)n1)NC1CC1 | 2% | -0.24
Cn1nc2n(c1=O)C[C@@H](C(=O)N(Cc1ccccn1)C1CCCCC1)CC2 | 0% | 0.1
CN(CCOc1ccccc1Cl)CC(=O)N(C)Cc1ccco1 | -9% | 1.72
Cc1cnn(-c2cc(-c3cnn(CC(=O)Nc4cc(C)nn4C)c3)ncn2)c1 | -8% | 1.46
